The whole screen tested about 150,000 compounds, of which about 6,500 (4.3%) were called active. Inconclusive results, whose numbers are uncertain, are shown with a selection of clear calls. Calls follow the shape of the dose curve; as a rule, active = well fitted inhibition curve with a large enough effect (not every such curve was filed as active); inconclusive = small, poorly fitted or top-dose-only effect, or another doubt; inactive = no such curve, though single readings can be large or run the other way. No potency is given beside an inconclusive call; the fits are too rough.
Each compound was assayed against 15-hydroxyprostaglandin dehydrogenase [NAD(+)] (Homo sapiens) (UniProt P15428) (assay: qHTS Assay for Inhibitors of HPGD (15-Hydroxyprostaglandin Dehydrogenase)). Details: purified HPGD, NADH fluorescence kinetic, PGE2 substrate; activity change, negative = inhibition: hits give low values.
Sequence of UniProt P15428 (P15428 whole entry, looked up): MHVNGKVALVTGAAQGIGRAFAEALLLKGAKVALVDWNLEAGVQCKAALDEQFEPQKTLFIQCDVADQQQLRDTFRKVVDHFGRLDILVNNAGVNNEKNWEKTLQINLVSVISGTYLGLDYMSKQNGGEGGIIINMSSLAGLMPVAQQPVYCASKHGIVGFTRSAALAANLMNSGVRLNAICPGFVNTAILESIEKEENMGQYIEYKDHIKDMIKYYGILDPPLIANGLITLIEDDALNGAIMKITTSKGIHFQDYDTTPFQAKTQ
Procedure, shortened: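 20 nM HPGD preincubated 15 min at room temperature with compound in 50 mM Tris-HCl pH 8, 0.01% Tween 20. Started with 1 mM NAD+ and 30 uM prostaglandin E2; NADH fluorescence (360/450 nm) read 5 times over 30-s intervals, last minus first.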
For `Cc1ccc(S(=O)(=O)Cn2nnnc2CN2CCN(C(=O)c3ccco3)CC2)cc1`, the activity change, negative = inhibition was inactive: -9.63%. In the case of `COc1ccccc1C(=O)Nc1nc2ccc(S(C)(=O)=O)cc2s1`, the Potency was inconclusive [inhibitor, partial curve]. `COc1ccc(/C=C/c2cc(OC)c(OC)cc2CC[N+](C)(C)C)cc1` was tested, and the Potency was inconclusive [inhibitor, single point]. `Cc1ccc(C(=O)c2c(NC(=O)c3ccccc3)sc(C)c2C)cc1` was tested, and the Potency was active: 14.1 µM. `O=C(O)CNC(=O)c1nc(-c2ccccc2)n(-c2ccccc2)n1` was tested, and the activity change, negative = inhibition was inactive: -6.58%. For `CCOC(=O)N1CCN(C(=O)c2ccc3c(SCC(=O)O)c4c(nc3c2)CCCC4)CC1`, the activity change, negative = inhibition was inactive: -4.41%. `O=C(OCC(F)(F)F)[C@H](O)[C@@H](O)C(=O)OCC(F)(F)F` was tested, and the activity change, negative = inhibition was inactive: -5.29%. With `COCc1cc(=O)n2[nH]c(C)cc2n1` the Potency was inconclusive [inhibitor, partial curve]. For `Oc1cccc(O)c1O`, the Potency was active: 10 µM. With `Cc1ccc(S(=O)(=O)/N=C2/C=C(Sc3ncn[nH]3)C(=O)c3ccccc32)cc1` the Potency was active: 0.891 µM. In the case of `CCOc1ccccc1-c1cc(-c2n[nH]c(=S)n2CC)c2ccccc2n1`, the Potency was inconclusive [inhibitor, partial curve]. For `COC1=CC(=O)C[C@@H](C)[C@]12Oc1c(Cl)c(OC)cc(OC)c1C2=O`, the Potency was inconclusive [inhibitor, partial curve]. `CCCS(=O)(=O)n1nc(-c2ccccc2)cc1N` was tested, and the activity change, negative = inhibition was inactive: -12.8%. `N#Cc1ccc(NC(=O)CCc2ccc(S(=O)(=O)N3CCOCC3)cc2)cc1` was tested, and the activity change, negative = inhibition was inactive: -13.2%. `COc1cc2cc(CN(Cc3cccs3)C(=S)Nc3cccc(C)c3)c(=O)[nH]c2cc1OC` was tested, and the activity change, negative = inhibition was inactive: -26.1%. `COc1ccc(/C=N/NC(=O)c2nn(-c3ccc(Cl)cc3)c(=O)c3c(N)scc23)cc1` was tested, and the Potency was active: 11.2 µM. In the case of `Cc1ccc2nc(-c3ccc(SCC(=O)Nc4cc(C)on4)nc3)[nH]c2c1`, the Potency was inconclusive [inhibitor, partial curve]. In the case of `O=C(Cn1cnc2c(nnn2Cc2ccc(Cl)cc2)c1=O)NCc1ccco1`, the Potency was active: 15.8 µM. With `COc1cc(/C=N/NC(=S)NC(C)C)ccc1OCC(=O)Nc1c(C)cc(C)cc1C` the Potency was inconclusive [inhibitor, partial curve]. `COc1ccccc1N=c1oc2cc(O)ccc2cc1C(N)=O` was tested, and the Potency was inconclusive [inhibitor, partial curve]. With `CCOc1ccc(NC(=O)c2ccc(NC(=O)c3cn4c5c(c(N6CCN(C)CC6)c(F)cc5c3=O)OCC4C)cc2)cc1` (stereo unspecified) the Potency was inconclusive [inhibitor, single point]. In the case of `CC(C)(C)c1cc(/C=C(\C#N)C(N)=S)cc(C(C)(C)C)c1O`, the Potency was inconclusive [inhibitor, single point]. For `O=C(CCCN1C(=O)c2cccc3cccc(c23)C1=O)N1CCN(Cc2ccc3c(c2)OCO3)CC1`, the Potency was inconclusive [inhibitor, partial curve]. In the case of `O=[N+]([O-])c1ccc(/C=N/N/C(=N/c2ccccn2)c2ccccn2)cc1`, the Potency was active: 28.2 µM. In the case of `COc1c2c(cc3occ(-c4ccc5c(c4)OCO5)c(=O)c13)OC(C)(C)C=C2`, the Potency was inconclusive [inhibitor, partial curve]. In the case of `CCN1C(=O)c2cccc3c(S(=O)(=O)NCCc4c[nH]c5ccccc45)ccc1c23`, the activity change, negative = inhibition was inactive: -9.01%. In the case of `Clc1ccc(OCc2nn3c(C4CCCCC4)nnc3s2)c(Cl)c1`, the Potency was active: 2.82 µM. In the case of `COc1ccccc1NC(=O)c1cc(Cl)ccc1NC(=O)c1ccco1`, the Potency was inconclusive [inhibitor, single point]. For `Cc1cccc2nc(CSc3nc4ccc([N+](=O)[O-])cc4[nH]3)c(Br)n12`, the Potency was inconclusive [inhibitor, partial curve, poor fit]. With `Cc1oc(C(C)(C)C)cc1C(=O)Nc1cccc(/C=C/C(=O)O)c1` the activity change, negative = inhibition was inactive: -16.3%. With `CCCn1c(=O)c(Cc2ccccc2)c(O)c2ccccc21` the Potency was inconclusive [inhibitor, partial curve]. With `COc1ccc(NC(=O)N2CCC(O)(c3cccnc3)CC2)c(OC)c1` the activity change, negative = inhibition was inactive: -11.7%. In the case of `CCS(=O)(=O)c1ccc(-c2csc(-c3ccccc3Cl)n2)c(Cl)c1Cl`, the Potency was inconclusive [inhibitor, partial curve]. `C=CCNc1nc(C)c(C(C)=O)cc1C#N` was tested, and the Potency was inconclusive [inhibitor, partial curve]. In the case of `CSc1cnc2c(=O)n(C)c(=O)[nH]c2n1`, the Potency was inconclusive [inhibitor, partial curve]. `O=C(O)c1cc(C(=O)O)nc(C(=O)O)c1` was tested, and the activity change, negative = inhibition was inactive: -10.2%. With `N/C(CC(=O)Nc1cc(C(F)(F)F)ccc1Cl)=N\O` the activity change, negative = inhibition was inactive: -3.55%. In the case of `CCC(=O)/C=C1\Sc2ccc(OC)cc2N1CC`, the Potency was active: 28.2 µM. In the case of `CCOC(=O)c1oc2ccc(OC)cc2c1NC(=O)CN1CCN(C)CC1`, the Potency was inconclusive [inhibitor, partial curve]. `O=c1c2c(nc3n1CCCCC3)-c1ccccc1CC21CCCC1` was tested, and the activity change, negative = inhibition was inactive: -13.8%. With `CCN(CC)C(=O)c1ccc2c3c(cccc13)C(=O)N(CCc1ccc(OC)c(OC)c1)C2=O` the Potency was active: 17.8 µM. In the case of `CCN(CC)C(=O)CSc1nc2c(sc(=S)n2Cc2ccco2)c(=O)n1-c1ccccc1`, the activity change, negative = inhibition was inactive: -9.46%. In the case of `CCOc1ccc2nc(NC3=NC(c4ccc(OC)cc4)CC(=O)N3)nc(C)c2c1` (stereo unspecified), the Potency was inconclusive [inhibitor, partial curve]. With `CCOC(=O)CSC1=NC(=O)/C(=C/c2ccc(OC)cc2)S1` the Potency was active: 12.6 µM. For `CC(=O)NS(=O)(=O)c1ccc(NC(=O)c2cc(-c3cccs3)nc3ccccc23)cc1`, the Potency was inconclusive [inhibitor, single point]. In the case of `O=C(COc1cccc2ccccc12)NNC(=O)c1cccs1`, the activity change, negative = inhibition was inactive: -7.35%.

Reference: PubChem BioAssay AID894 (National Center for Advancing Translational Sciences (NCATS), 2007)
% is scaled to controls: 0 for no effect and ±100 for the full control effect; potency is read from the fitted curve at half-maximal effect; tags tell the direction and shape of the fitted curve.
